# Data reported in the supplement of paper PMC3334620.
# The full ranking holds about 33,000 sequences; the median of “E-score (-0.5 to 0.5)” is about -0.012, and the highest 2% start at about 0.27. This is one part of the list.
# Molecular target: T1, Vhr1 (UniProt P40522)
# T1 sequence: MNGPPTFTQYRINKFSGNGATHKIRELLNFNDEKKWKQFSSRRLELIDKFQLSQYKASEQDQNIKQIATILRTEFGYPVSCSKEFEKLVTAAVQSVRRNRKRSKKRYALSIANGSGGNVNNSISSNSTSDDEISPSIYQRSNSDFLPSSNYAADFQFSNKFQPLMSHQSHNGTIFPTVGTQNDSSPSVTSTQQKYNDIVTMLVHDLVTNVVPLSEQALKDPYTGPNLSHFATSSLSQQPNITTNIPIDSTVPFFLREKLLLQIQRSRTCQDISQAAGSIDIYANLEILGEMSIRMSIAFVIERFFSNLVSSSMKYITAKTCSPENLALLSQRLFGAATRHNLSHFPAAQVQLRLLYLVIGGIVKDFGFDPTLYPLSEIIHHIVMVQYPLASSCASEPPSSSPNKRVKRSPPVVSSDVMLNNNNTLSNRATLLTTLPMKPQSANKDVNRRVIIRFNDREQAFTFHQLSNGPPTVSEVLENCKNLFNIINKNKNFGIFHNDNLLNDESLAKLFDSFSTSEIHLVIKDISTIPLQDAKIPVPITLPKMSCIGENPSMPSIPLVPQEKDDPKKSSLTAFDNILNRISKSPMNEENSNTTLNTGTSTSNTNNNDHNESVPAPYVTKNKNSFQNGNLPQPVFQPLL
# Experiment: PBM E-score (8-mer binding enrichment) (E-score (-0.5 to 0.5)); higher = stronger / more preferred TF binding; most listed sequences are background and not binding sites
# Conditions: protein concentration: 200 nM; construct: GST-full length
# Protocol: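 Universal 'all 10-mer' protein binding microarrays (Agilent AMADID 015681) probed with GST-tagged S. cerevisiae TFs (full-length or DBD) made by in vitro transcription/translation (PURExpress), about 100-200 nM. Bound TF was detected with fluorescent anti-GST. Each ungapped 8-mer (which stands for itself and its reverse complement) is scored by the PBM enrichment score (E-score), a modified Wilcoxon-Mann-Whitney statistic from -0.5 to +0.5, computed with the Universal PBM Analysis Suite. Scale: above 0.35 generally sequence-specific binding.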
row,Sequence,PBM E-score
1,ATCGTAAG,-0.0907
2,ACTGCCGC,0.101
3,AGTAAAAC,-0.114
4,CGTGCATC,-0.0587
5,GAAGATCC,-0.239
6,GCAGGACA,-0.153
7,CCTCGCTA,-0.23
8,CTGTTACA,0.0932
9,ATATAAGA,0.0901
10,ACCCGTTA,0.0104
11,AAATAAGA,-0.183
12,AAGCGCTG,-0.0816
13,CTCAAGGA,0.0113
14,TCAGCCGA,0.187
15,ACCCATAG,0.0609
16,AAGACCTC,-0.198
17,AGTGATAA,-0.134
18,AAGATTCG,0.0242
19,GCTTAAGA,-0.221
20,AAAGCAAG,0.00927
21,AGCTAACG,-0.237
22,CAATGCTA,-0.073
23,CGTTTGCA,-0.0884
24,CCGCTCGC,0.0504
25,CAAGGAAC,-0.0217

row,Sequence,PBM E-score
1,AGGCCAAA,-0.106
2,CTGTCGAA,-0.218
3,AGATTGTC,-0.0716
4,GGAGTCAA,0.354
5,ACCAGAGA,0.0722
6,GGCGAATA,0.0713
7,GCACTAAA,-0.112
8,GTTAACGA,-0.043
9,CAGCTGGA,0.111
10,ACTGGACG,-0.113
11,CTATCACC,-0.0622
12,AGATCCCA,-0.149
13,AGACGCTC,-0.234
14,CTTCTTGA,-0.0291
15,CTTTACAA,-0.115
16,AAATACGT,-0.0922
17,CTCTGCGA,0.0491
18,CTCGTTAC,-0.00761
19,TATGTCGA,-0.0171
20,AAGGCTCC,-0.172
21,CCGACCCC,-0.135
22,CTTGTCTA,-0.159
23,AACGAACG,-0.0276
24,AGGACAGG,-0.267
25,CAAAAATG,-0.0171

row,Sequence,PBM E-score
1,AAAGGTTG,-0.178
2,CCTGACGC,-0.197
3,AACTATGG,-0.0595
4,GCTAGGCC,-0.125
5,AGTATTAT,-0.132
6,AGAACTTC,-0.182
7,CTATTTGA,-0.122
8,TAATGTCA,-0.0164
9,GAAGATAC,0.00993
10,CCCACCCA,0.263
11,AACTAGGA,-0.208
12,CAGCGTTA,-0.084
13,TAAATAAA,-0.149
14,CGGACTTA,-0.189
15,GACAGGTC,-0.162
16,GCAGGCGA,0.0554
17,CATCTACC,0.188
18,ATAGTGCG,0.128
19,AACACGGA,0.2
20,ACTAAGTA,0.0363
21,AAGGGCGC,-0.0838
22,CCGGCCAC,-0.189
23,AGGTATGC,-0.0105
24,AACTAGTG,-0.128
25,CGTCCGAG,-0.103

row,Sequence,PBM E-score
1,CAATCCTA,-0.132
2,AGTCGGGG,0.248
3,AGACCTAG,-0.00186
4,CCCCTAGC,-0.209
5,GGCACGCA,-0.0899
6,ACAGTAAC,0.227
7,ACGCGGGG,0.179
8,CACTGCTA,-0.0886
9,CGACGAGC,-0.0522
10,ACTGGGGC,-0.213
11,CCTTAAGC,-0.203
12,TCGGAGAA,0.026
13,TCGAGCAA,-0.0616
14,AGGACATG,-0.0607
15,GGCTGACC,-0.0749
16,ATAGGCGA,-0.0938
17,GATAACCA,0.123
18,CGGTCTAC,-0.0173
19,AACAATCG,-0.115
20,CGTTAGTA,0.149
21,AGTGTACC,-0.0103
22,CCGATGAA,-0.0715
23,TAGCCCGA,-0.11
24,CTGGTTCC,0.0593
25,GCCGGCGC,0.0181

row,Sequence,PBM E-score
1,CTTTTTTC,-0.218
2,CAGGAGCC,-0.0558
3,AGTGCGCA,0.112
4,ACTACGAT,0.129
5,ATGCGCCG,-0.0423
6,GTGGCACA,-0.014
7,AGGTTGGC,-0.0591
8,ATTAAAAC,0.0909
9,GCGCCAAC,-0.0311
10,CGCGGGAG,0.115
11,TCTTCTCA,-0.102
12,ACCAGAGT,0.00338
13,AGAGTCCT,-0.17
14,GATCCTGC,-0.0104
15,CCCGAAGC,-0.0472
16,TACTGCCA,-0.0155
17,CACTTATG,0.181
18,GACCCAGA,0.0388
19,CAATTCCG,-0.104
20,GACAGACC,-0.067
21,AACAGACA,0.285
22,AGATGCAA,-0.0804
23,AACAGCAG,-0.00716
24,ATGCGCTC,-0.0739
25,ACACCTTA,-0.109

row,Sequence,PBM E-score
1,TGATTCCA,0.364
2,ACATAAGA,0.0637
3,ATTGTCGA,0.0708
4,AATGCAGG,0.0726
5,CACATGTC,0.065
6,ATCACGAC,0.0915
7,CTGATCAG,0.0954
8,AACAATAG,0.0304
9,GCACTTGA,-0.145
10,CGTATCAA,-0.143
11,AGATTCTC,-0.00317
12,ATCACACG,0.102
13,ATTCTGAA,-0.0643
14,CGGTTTGA,0.00753
15,CACCGCGC,0.194
16,AAGTTTAG,-0.0765
17,AGGGTTTG,0.019
18,AAGACTGC,-0.132
19,AGCGACTG,0.194
20,TAAATAGA,-0.332
21,ACACAGCA,0.286
22,CAGGAGCA,-0.0241
23,GCGGCCGA,0.0326
24,CATCGTCC,0.179
25,CGTGGTGC,-0.275

row,Sequence,PBM E-score
1,ATTGGTGA,0.0537
2,GGATGAGA,-0.00804
3,GAGTTCAA,-0.171
4,CCACATGC,0.118
5,ATTACACA,0.233
6,AGGCGATC,-0.133
7,AAGATCCC,-0.07
8,ACCGCGAT,-0.0571
9,AGGAATCG,0.0478
10,CCGAGCGG,0.0783
11,AGCCTCAG,0.0596
12,GTCATTTA,0.114
13,CATGGTGC,-0.084
14,ACTTAGGG,0.001
15,CGGTTTGC,-0.0432
16,AAAGATTG,-0.137
17,CTGAATCC,0.224
18,GGGCGGCA,-0.0948
19,CATTTGTC,-0.115
20,GTAGAGGA,-0.261
21,GCCAGAGA,-0.0762
22,CATGAGGG,-0.0955
23,ACCCTCGG,-0.0507
24,CATACTGA,0.123
25,GACATACA,0.155

row,Sequence,PBM E-score
1,ACTAACTG,0.257
2,CCATAACG,0.0844
3,GGAAAATA,-0.0659
4,GAGCCTGA,-0.0227
5,AACGTCTA,-0.148
6,GAAGGTTA,-0.0452
7,GCCACTGA,0.0772
8,CCCTTGAG,-0.0267
9,ATAACTTC,0.0525
10,AAGGAGGA,-0.313
11,AAATTCTC,-0.24
12,GCATGGGA,-0.0657
13,CGACCTGA,0.00296
14,GATCCCAA,-0.197
15,CCTATTGC,-0.229
16,AAATACCT,-0.212
17,AACGCCGT,-0.268
18,AATCAGCG,0.25
19,ACACTGGA,0.181
20,GCTGTATA,-0.0417
21,CGGCAGCA,-0.0628
22,TCGTGGCA,-0.017
23,GCGCTTAA,-0.108
24,CGACTTCC,-0.113
25,GCGTCTAA,-0.205

row,Sequence,PBM E-score
1,AAATACTC,0.0554
2,AGGTCGCG,-0.0518
3,CGAGAGGC,-0.198
4,ACCTACCA,0.147
5,CGCTAGAA,-0.114
6,ATGGCGGG,0.23
7,ATGGGCGA,0.205
8,ACTATGAA,0.0955
9,CGCAGCTC,-0.0964
10,GTCCGCAA,0.053
11,ATGGCAGG,0.0464
12,GCCTTTCA,-0.137
13,AGACAAGG,-0.152
14,GAGCTTGA,-0.0784
15,CGGAACCC,0.0267
16,ATTGAATC,-0.0678
17,AGAGAAGG,-0.0657
18,ATTTCACG,-0.0211
19,AGACTAAG,-0.101
